Biological target: porcine trypsin (porcine, UniProt P00761 9-231)
Test: cell-based or functional assay

Sequence of UniProt P00761 (P00761 9-231 limits assumed): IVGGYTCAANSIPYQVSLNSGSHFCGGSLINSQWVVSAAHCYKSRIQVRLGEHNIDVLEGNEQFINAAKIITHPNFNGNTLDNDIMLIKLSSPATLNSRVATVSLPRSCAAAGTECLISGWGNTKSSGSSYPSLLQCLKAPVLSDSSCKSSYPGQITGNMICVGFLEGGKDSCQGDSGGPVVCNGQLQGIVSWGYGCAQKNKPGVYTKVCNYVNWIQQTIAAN

B1: 6L15 (designed binder)
chain: APDFCLEPPYDGPCRALHLRYFYNAKAGLCQTFYYGGCLAKRNNFESAEDCMRTCGGA
apparent stoichiometry of inhibition (amidolysis of S2444, titration of trypsin activity): 1 mol inhibitor per mol enzyme

B2: ANV-6L15 (other)
chain: AQVLRGTVTDFPGFDERADAETLRKAMKGLGTDEESILTLLTSRSNAQRQEISAAFKTLFGRDLLDDLKSELTGKFEKLIVALMKPSRLYDAYELKHALKGAGTNEKVLTEIIASRTPEELRAIKQVYEEEYGSSLEDDVVGDTSGYYQRMLVVLLQANRDPDAGIDEAQVEQDAQALFQAGELKWGTDEEKFITIFGTRSVSHLRKVFDKYMTISGFQIEETIDRETSGNLEQLLLAVVKSIRSIPAYLAETLYYAMKGAGTDDHTLIRVMVSRSEIDLFNIRKEFRKNFATSLYSMIKGDTSGDYKKALLLLAGEDDMHPDFCLEPPYDGPCRALHLRYFYNAKAGLCQTFYYGGCLAKRNNFESAEDCMRTCGGA
apparent stoichiometry of inhibition (amidolysis of S2444, titration of trypsin activity): 1 mol inhibitor per mol enzyme

Source: patent US20050164926A1 (published 2005)
